PubChem BioAssay AID1240 (Sanford-Burnham Center for Chemical Genomics, 2008)
Out of some 50,000 compounds screened, about 800 (1.6%) showed an effect of 50% or more. The list shows a part of the results.

biological target: Bcl-2-like protein 10 (Homo sapiens) (UniProt Q9HD36); assay: Phenotype converters, Bcl-B/TR3 peptide binding displacement, primary biochemical FP (AID 1240); details: GST-Bcl-B / FITC-TR3 peptide fluorescence polarization; stronger effect = higher value; compound at 3.75 mg/L;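 further: 0% = Bcl-B with tracer peptide and DMSO and 100% = tracer peptide lacking Bcl-B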
UniProt Q9HD36, sequence (Q9HD36 whole entry, looked up): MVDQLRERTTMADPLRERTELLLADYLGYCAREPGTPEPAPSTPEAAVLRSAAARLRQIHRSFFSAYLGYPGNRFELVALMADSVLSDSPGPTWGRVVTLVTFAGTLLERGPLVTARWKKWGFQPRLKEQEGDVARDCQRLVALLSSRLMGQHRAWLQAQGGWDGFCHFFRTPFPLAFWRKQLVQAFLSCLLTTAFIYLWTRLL

**Q.** With `COC(=O)c1c(NC(=O)c2cnccn2)sc2c1CCCCCC2` as the compound, how does the displacement read?
**A.** -0.1%

**Q.** For `COc1ccc(N2C(=O)/C(=C/C3C(=O)N(c4ccccc4)N=C3C)C(=O)NC2=S)cc1` (stereo unspecified), which displacement is on record?
**A.** -0.4%

**Q.** How did the displacement turn out when `Cn1c(=O)c2[nH]c(N=Nc3c(O)[nH]c(=O)[nH]c3=O)nc2n(C)c1=O` was run?
**A.** -36.6%

**Q.** For `O=C1/C(=C\c2cccc([N+](=O)[O-])c2)SC(=S)N1c1ccccc1`, which displacement is on record?
**A.** 10.8%

**Q.** `N#C/C(=C\Nc1ccc(Cl)cc1)C(N)=O` was tested. Which displacement did it give?
**A.** 9.5%

**Q.** For `CCN(CC)c1ccc(NC(=O)COc2ccc(OC)cc2)cc1`, which displacement is on record?
**A.** -5%

**Q.** `O=C1CC(c2ccccc2)CC(O)=C1C=NCc1ccc2c(c1)OCO2` (stereo unspecified) was tested. Which displacement did it give?
**A.** -2.5%

**Q.** Which displacement does the source give for `COc1ccc(NC(=O)/C=C/c2ccccc2)c(OC)c1` here?
**A.** -4%

**Q.** Which displacement does the source give for `CN(C)c1cc(N/N=C/c2cccc(O)c2)nc(N(C)C)n1` here?
**A.** 7.7%

**Q.** With `COC(=O)c1ccc(CSc2nc3sc4c(c3c(=O)[nH]2)CCCC4)cc1` as the compound, how does the displacement read?
**A.** -0.7%

**Q.** Which displacement does the source give for `Cc1cc(NC(=O)Nc2ccccc2)no1` here?
**A.** -7.7%

**Q.** With `CCOC(=O)c1c[nH]c2c(Br)cccc2c1=O` as the compound, how does the displacement read?
**A.** 1.8%

**Q.** Which displacement does the source give for `COC(=O)c1cccc(NC(=O)C2COc3ccccc3O2)c1` (stereo unspecified) here?
**A.** -3.9%

**Q.** Which displacement does the source give for `Cc1ccc(S(=O)(=O)Nc2ccc3ccccc3c2)cc1` here?
**A.** 17.9%

**Q.** `C/C(C=NN1CCN(Cc2ccccc2)CC1)=C\c1ccccc1` was tested. Which displacement did it give?
**A.** 1.8%

**Q.** With `CCN(CC)S(=O)(=O)c1ccc2c(c1)OCCO2` as the compound, how does the displacement read?
**A.** 0.4%

**Q.** How did the displacement turn out when `CCc1ccc(-c2nn(-c3cc(N4CCOCC4)ccc3[N+](=O)[O-])c(=O)c3ccccc23)cc1` was run?
**A.** 9.4%

**Q.** With `O=C1c2ccccc2-c2onc3ccc(Nc4cccc([N+](=O)[O-])c4)c1c23` as the compound, how does the displacement read?
**A.** 24.2%

**Q.** How did the displacement turn out when `CCOC(=O)c1c(NC(=O)COc2cc(Cl)ccc2Cl)sc(C(C)=O)c1C` was run?
**A.** -8.8%

**Q.** How did the displacement turn out when `O=C(c1cccc(Cl)c1)N1CCN(Cc2ccncc2)CC1` was run?
**A.** -8%

**Q.** How did the displacement turn out when `O=C(Nc1nnc(-c2ccco2)s1)c1ccccc1I` was run?
**A.** -5.7%

**Q.** `O=C(CSC(=S)N1CCOCC1)c1ccc([N+](=O)[O-])cc1` was tested. Which displacement did it give?
**A.** 38.4%

**Q.** With `Cc1onc(-c2c(Cl)cccc2Cl)c1C(N)=O` as the compound, how does the displacement read?
**A.** 11.9%

**Q.** `CN1C(=O)C2(N=C(C(=O)O)c3ccccc3N2C)c2ccccc21` (stereo unspecified) was tested. Which displacement did it give?
**A.** -3.5%

**Q.** How did the displacement turn out when `CCOc1ccc(NC(=O)C2=C(C)NC(=O)NC2c2cccc(Br)c2)cc1` (stereo unspecified) was run?
**A.** -7.7%

**Q.** Which displacement does the source give for `CCOc1ccc(N(CC(=O)OC)S(=O)(=O)c2ccc(C)cc2)cc1` here?
**A.** 10.3%

**Q.** `COc1ccc(/C(C)=N\NC(=O)COc2cccc(Cl)c2)cc1OC` was tested. Which displacement did it give?
**A.** 6.5%

**Q.** For `Cc1n[nH]c(C)c1CCCCCOc1ccc(Cl)cc1`, which displacement is on record?
**A.** -1.3%

**Q.** `COc1ccc(C(=O)N2CCN(Cc3cc(OC)c(O)c(OC)c3)CC2)cc1OC` was tested. Which displacement did it give?
**A.** 8.6%

**Q.** Which displacement does the source give for `CN(C)C=NC1=NN(c2ccccc2)CC1` here?
**A.** 14%

**Q.** For `O=C(Nc1ccc(-c2ccc([N+](=O)[O-])cc2)cc1)c1ccccc1F`, which displacement is on record?
**A.** -11.7%

**Q.** Which displacement does the source give for `CN(c1ccc(C(=O)Nc2ccccc2Br)cc1)S(=O)(=O)c1ccccc1` here?
**A.** -8.9%

**Q.** Which displacement does the source give for `c1ccc(-c2noc(-c3ccc4ccccc4c3)n2)cc1` here?
**A.** 25.5%

**Q.** With `Cc1ccc(C(=O)ONC(=O)c2ccc(Cl)cc2)cc1[N+](=O)[O-]` as the compound, how does the displacement read?
**A.** 3.4%

**Q.** Which displacement does the source give for `CCOc1ccc(N2C(=O)NC(=O)/C(=C/C=C/c3ccco3)C2=O)cc1` here?
**A.** 36%

**Q.** Which displacement does the source give for `O=[N+]([O-])c1ccccc1S(=O)(=O)NCCN1CCOCC1` here?
**A.** -6.5%

**Q.** With `CCN(CC)CCOc1ccc([N+](=O)[O-])cc1` as the compound, how does the displacement read?
**A.** 5.3%

**Q.** For `CCOC(=O)c1c(NC(=O)c2ccc(Cl)c([N+](=O)[O-])c2)sc(C(=O)Nc2ccccc2OC)c1C`, which displacement is on record?
**A.** -14.3%

**Q.** With `Cc1cc(/C=N/NC(N)=O)c(C)n1-c1ccc(Cl)cc1` as the compound, how does the displacement read?
**A.** -13.9%

**Q.** For `N/C(Cc1ccc(Cl)cc1)=N\OC(=O)c1ccccc1Cl`, which displacement is on record?
**A.** 0.1%

**Q.** With `NS(=O)(=O)c1ccc(NC(=O)/C(=C\c2ccc([N+](=O)[O-])cc2)NC(=O)c2ccccc2)cc1` as the compound, how does the displacement read?
**A.** 3.1%

**Q.** For `CC(=O)Nc1ccc(S(=O)(=O)NC(=O)CC(C)C)cc1`, which displacement is on record?
**A.** 7.9%

**Q.** With `CSc1nc(NC(N)=O)c2c3c(sc2n1)CC(C(C)(C)C)CC3` (stereo unspecified) as the compound, how does the displacement read?
**A.** 0.7%

**Q.** Which displacement does the source give for `CC1=C(C(=O)Nc2ccccc2C)C(c2ccc(C)cc2)NC(=S)N1` (stereo unspecified) here?
**A.** -4.6%

**Q.** How did the displacement turn out when `Cc1ccc(C(=O)Nc2ccccc2-c2ccccc2)cc1` was run?
**A.** -8.4%

**Q.** `COc1cc(C=O)cc2c1OC1(C=C2)N(C)c2ccccc2C1(C)C` (stereo unspecified) was tested. Which displacement did it give?
**A.** 5.8%

**Q.** Which displacement does the source give for `CCOC(=O)c1ccc(N2C(=O)C3CC=C(C)CC3C2=O)cc1` (stereo unspecified) here?
**A.** -7.5%

**Q.** `CC(C)(C)CC(C)(C)NC1=CC(=O)OC12CCCCC2` was tested. Which displacement did it give?
**A.** 11.8%

**Q.** With `CCOC(=O)C1=C(O)/C(=C/c2cccc(Br)c2)SC1=Nc1ccccc1` as the compound, how does the displacement read?
**A.** 14.8%

**Q.** With `CCOc1ccc(N/C=C(/C#N)c2nc(-c3ccc(F)cc3)cs2)cc1` as the compound, how does the displacement read?
**A.** -8.1%

**Q.** `CCc1ccc(-c2nc3cc(NC(=O)c4cccc(OC)c4)ccc3o2)cc1` was tested. Which displacement did it give?
**A.** 7.1%

**Q.** `CCOC(=O)/C(=N/O)C1=NC2(CCCCC2)Cc2ccccc21` was tested. Which displacement did it give?
**A.** -1.8%

**Q.** How did the displacement turn out when `O=C(CSCc1ccc(Cl)cc1Cl)Nc1ccc(O)cc1C(=O)O` was run?
**A.** 7.2%

**Q.** How did the displacement turn out when `CN(Cc1ccccc1)C(=O)CN(c1cccc([N+](=O)[O-])c1)S(=O)(=O)c1ccccc1` was run?
**A.** -5%

**Q.** `O=C(CSCc1ccc(Cl)cc1)Nc1ccc(C(=O)Nc2nccs2)cc1` was tested. Which displacement did it give?
**A.** 6.3%

**Q.** `O=C(Cc1ccc(F)cc1)NCc1ccccc1` was tested. Which displacement did it give?
**A.** 10%

**Q.** For `COc1ccccc1/C=C/C=N/NC(=O)CSc1nc2ccccc2n1C`, which displacement is on record?
**A.** -7.4%

**Q.** `Cc1ccc(N(Cc2c(O)ccc3ccccc23)C(=O)c2ccco2)cc1` was tested. Which displacement did it give?
**A.** -2.3%

**Q.** Which displacement does the source give for `O=C(Nc1ccccc1C(=O)N1CCOCC1)c1cccnc1` here?
**A.** 8.2%

**Q.** `COC(=O)C1=C(C)NC2=C(C(=O)c3ccccc32)C1c1ccc(-c2ccc(C(=O)O)cc2)o1` (stereo unspecified) was tested. Which displacement did it give?
**A.** 10.2%

**Q.** Which displacement does the source give for `CCOC(=O)COc1ccccc1/C=C1\C(=O)NC(=O)N(c2ccc(Br)c(C)c2)C1=O` here?
**A.** -8.3%

**Q.** How did the displacement turn out when `COc1ccccc1Cc1noc(/C=C/c2ccccc2)n1` was run?
**A.** -1.2%

**Q.** How did the displacement turn out when `COCCCNC(=O)/C=C/c1ccc(C)cc1` was run?
**A.** -8%

**Q.** How did the displacement turn out when `Cc1ccc(N2NC(=O)/C(=C/c3ccc4c(c3)OCO4)C2=O)cc1C` was run?
**A.** 6.3%

**Q.** How did the displacement turn out when `Cc1cc(C)c2oc(-c3ccc(NC(=O)Cc4ccccc4)cc3O)nc2c1` was run?
**A.** 42.8%

**Q.** With `COc1cc2nc(-c3cccc(C)c3)oc(=O)c2cc1OC` as the compound, how does the displacement read?
**A.** 8.8%

**Q.** How did the displacement turn out when `N#Cc1cccc(NC(=O)CCC(=O)O)c1` was run?
**A.** -6.5%

**Q.** `Cc1ccc(N2C(=O)c3ccc(C(=O)Nc4ccc(O)cc4)cc3C2=O)cc1C` was tested. Which displacement did it give?
**A.** 17.7%

**Q.** Which displacement does the source give for `CCN(CC)CC(=O)Nc1sc2c(c1C(N)=O)CCCC2` here?
**A.** -1.1%

**Q.** How did the displacement turn out when `Clc1ccc(OCCSc2ncnc3nc[nH]c23)cc1` was run?
**A.** -7%

**Q.** `Clc1cccc(OCCCCN2CCOCC2)c1Cl` was tested. Which displacement did it give?
**A.** -0.6%
